# Substitutions are numbered along the chain they refer to; changes in the protein carry UniProt numbers. This is one part of the list.
# T1: RBFOX1 RRM (Homo sapiens, UniProt Q9NWB1 109-208)
# T1 sequence: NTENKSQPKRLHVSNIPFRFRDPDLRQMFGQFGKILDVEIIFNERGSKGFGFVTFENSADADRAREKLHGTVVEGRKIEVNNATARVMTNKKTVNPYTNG
# B1: ACUGAGA (DNA:RNA)
# RNA: GGGAGACCGGAAUUCAGAUUGUCCACUGAGAUUAAAUCCCGUCGUAGCCACCA
# DNA 1: CAATCTGAATTCCGGTCTCCC
# DNA 2: TGGTGGCTACGACGGGATT
# B2: GCACAUA (DNA:RNA)
# RNA: B1 RNA with A25G, U27A, G28C, G30U
# DNA 1: CAATCTGAATTCCGGTCTCCC
# DNA 2: TGGTGGCTACGACGGGATT
# B3: AUGCCGU (DNA:RNA)
# RNA: B1 RNA with C26U, U27G, G28C, A29C, A31U
# DNA 1: CAATCTGAATTCCGGTCTCCC
# DNA 2: TGGTGGCTACGACGGGATT
# B4: GUUAGGA (DNA:RNA)
# RNA: B1 RNA with A25G, C26U, G28A, A29G
# DNA 1: CAATCTGAATTCCGGTCTCCC
# DNA 2: TGGTGGCTACGACGGGATT
# B5: CCAACGG (DNA:RNA)
# RNA: B1 RNA with A25C, U27A, G28A, A29C, A31G
# DNA 1: CAATCTGAATTCCGGTCTCCC
# DNA 2: TGGTGGCTACGACGGGATT
# B6: UGCAUUG (DNA:RNA)
# RNA: GGGAGACCGGAAUUCAGAUUGUCCUGCAUUGUUAAAUCCCGUCGUAGCCACCA
# DNA 1: CAATCTGAATTCCGGTCTCCC
# DNA 2: TGGTGGCTACGACGGGATT
# B7: UGCUUAA (DNA:RNA)
# RNA: B6 RNA with A28U, U30A, G31A
# DNA 1: CAATCTGAATTCCGGTCTCCC
# DNA 2: TGGTGGCTACGACGGGATT
# B8: GGUAUUC (DNA:RNA)
# RNA: B6 RNA with U25G, C27U, G31C
# DNA 1: CAATCTGAATTCCGGTCTCCC
# DNA 2: TGGTGGCTACGACGGGATT
# B9: UGCUUGA (DNA:RNA)
# RNA: B6 RNA with A28U, U30G, G31A
# DNA 1: CAATCTGAATTCCGGTCTCCC
# DNA 2: TGGTGGCTACGACGGGATT
# B10: AGUAGUC (DNA:RNA)
# RNA: B6 RNA with U25A, C27U, U29G, G31C
# DNA 1: CAATCTGAATTCCGGTCTCCC
# DNA 2: TGGTGGCTACGACGGGATT
# B11: UUCAGAC (DNA:RNA)
# RNA: B6 RNA with G26U, U29G, U30A, G31C
# DNA 1: CAATCTGAATTCCGGTCTCCC
# DNA 2: TGGTGGCTACGACGGGATT
# B12: GACGGUC (DNA:RNA)
# RNA: B6 RNA with U25G, G26A, A28G, U29G, G31C
# DNA 1: CAATCTGAATTCCGGTCTCCC
# DNA 2: TGGTGGCTACGACGGGATT
# B13: CUUUCAU (DNA:RNA)
# RNA: B1 RNA with A25C, C26U, G28U, A29C, G30A, A31U
# DNA 1: CAATCTGAATTCCGGTCTCCC
# DNA 2: TGGTGGCTACGACGGGATT
# B14: AACUAUG (DNA:RNA)
# RNA: B6 RNA with U25A, G26A, A28U, U29A
# DNA 1: CAATCTGAATTCCGGTCTCCC
# DNA 2: TGGTGGCTACGACGGGATT
# B15: ACGCCCG (DNA:RNA)
# RNA: B1 RNA with U27G, G28C, A29C, G30C, A31G
# DNA 1: CAATCTGAATTCCGGTCTCCC
# DNA 2: TGGTGGCTACGACGGGATT
# B16: CAAGGGC (DNA:RNA)
# RNA: B1 RNA with A25C, C26A, U27A, A29G, A31C
# DNA 1: CAATCTGAATTCCGGTCTCCC
# DNA 2: TGGTGGCTACGACGGGATT
# B17: ACAGUAU (DNA:RNA)
# RNA: B1 RNA with U27A, A29U, G30A, A31U
# DNA 1: CAATCTGAATTCCGGTCTCCC
# DNA 2: TGGTGGCTACGACGGGATT
# B18: UGCCGCG (DNA:RNA)
# RNA: B6 RNA with A28C, U29G, U30C
# DNA 1: CAATCTGAATTCCGGTCTCCC
# DNA 2: TGGTGGCTACGACGGGATT
# B19: GAUAGAC (DNA:RNA)
# RNA: B1 RNA with A25G, C26A, G28A, A29G, G30A, A31C
# DNA 1: CAATCTGAATTCCGGTCTCCC
# DNA 2: TGGTGGCTACGACGGGATT
# B20: AGGCAAG (DNA:RNA)
# RNA: B1 RNA with C26G, U27G, G28C, G30A, A31G
# DNA 1: CAATCTGAATTCCGGTCTCCC
# DNA 2: TGGTGGCTACGACGGGATT
# B21: ACCGGUA (DNA:RNA)
# RNA: B1 RNA with U27C, A29G, G30U
# DNA 1: CAATCTGAATTCCGGTCTCCC
# DNA 2: TGGTGGCTACGACGGGATT
# B22: CGAGGAU (DNA:RNA)
# RNA: B1 RNA with A25C, C26G, U27A, A29G, G30A, A31U
# DNA 1: CAATCTGAATTCCGGTCTCCC
# DNA 2: TGGTGGCTACGACGGGATT
# B23: UAUGAUC (DNA:RNA)
# RNA: B1 RNA with A25U, C26A, G30U, A31C
# DNA 1: CAATCTGAATTCCGGTCTCCC
# DNA 2: TGGTGGCTACGACGGGATT
# B24: GAGUUUG (DNA:RNA)
# RNA: B6 RNA with U25G, G26A, C27G, A28U
# DNA 1: CAATCTGAATTCCGGTCTCCC
# DNA 2: TGGTGGCTACGACGGGATT
# B25: ACCAAUU (DNA:RNA)
# RNA: B1 RNA with U27C, G28A, G30U, A31U
# DNA 1: CAATCTGAATTCCGGTCTCCC
# DNA 2: TGGTGGCTACGACGGGATT
# B26: CCUCGCU (DNA:RNA)
# RNA: B1 RNA with A25C, G28C, A29G, G30C, A31U
# DNA 1: CAATCTGAATTCCGGTCTCCC
# DNA 2: TGGTGGCTACGACGGGATT
# B27: ACCUUAC (DNA:RNA)
# RNA: B1 RNA with U27C, G28U, A29U, G30A, A31C
# DNA 1: CAATCTGAATTCCGGTCTCCC
# DNA 2: TGGTGGCTACGACGGGATT
# B28: UGCAGAC (DNA:RNA)
# RNA: B6 RNA with U29G, U30A, G31C
# DNA 1: CAATCTGAATTCCGGTCTCCC
# DNA 2: TGGTGGCTACGACGGGATT
# B29: UGAGAUA (DNA:RNA)
# RNA: B1 RNA with A25U, C26G, U27A, G30U
# DNA 1: CAATCTGAATTCCGGTCTCCC
# DNA 2: TGGTGGCTACGACGGGATT
# B30: CUCGAGC (DNA:RNA)
# RNA: B1 RNA with A25C, C26U, U27C, A31C
# DNA 1: CAATCTGAATTCCGGTCTCCC
# DNA 2: TGGTGGCTACGACGGGATT
# B31: GCCUCUA (DNA:RNA)
# RNA: B1 RNA with A25G, U27C, G28U, A29C, G30U
# DNA 1: CAATCTGAATTCCGGTCTCCC
# DNA 2: TGGTGGCTACGACGGGATT
# Target: T1, RBFOX1 RRM
# Assay: EMSA; HiTS-Eq, 1 nM pool, 10 min; buffer printed only for the single-RNA assays: 10 mM Tris pH 7.5, 150 mM NaCl, 3.4 mM EDTA, 0.001% NP-40, 30 C
# Conditions: tags: His6 N-terminal (pET28a); label: 5' 32P
# Outline: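 Purified wild-type or mutant RbFox RRM at increasing concentrations was equilibrated with 1 nM of 5′-radiolabelled RNA carrying 7 randomized nucleotides for 10 min in 50 µL. Unbound RNA was separated by 8% native PAGE and sequenced. Relative association constants came from read-count changes of each RNA species compared with the control reaction, normalised to the cognate motif.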
row,Binder,binding signal
1,B1,0.00967 KA relative to UGCAUGU
2,B2,0.00437 KA relative to UGCAUGU
3,B3,0.0108 KA relative to UGCAUGU
4,B4,0.00313 KA relative to UGCAUGU
5,B5,0.00496 KA relative to UGCAUGU
6,B6,0.0355 KA relative to UGCAUGU
7,B7,0.0138 KA relative to UGCAUGU
8,B8,0.0102 KA relative to UGCAUGU
9,B9,0.0378 KA relative to UGCAUGU
10,B10,0.0132 KA relative to UGCAUGU
11,B11,0.00664 KA relative to UGCAUGU
12,B12,0.0221 KA relative to UGCAUGU
13,B13,0.00217 KA relative to UGCAUGU
14,B14,0.00645 KA relative to UGCAUGU
15,B15,0.00309 KA relative to UGCAUGU
16,B16,0.00331 KA relative to UGCAUGU

row,Binder,binding signal
1,B17,0.00142 KA relative to UGCAUGU
2,B18,0.0142 KA relative to UGCAUGU
3,B19,0.0144 KA relative to UGCAUGU
4,B20,0.0124 KA relative to UGCAUGU
5,B21,0.00466 KA relative to UGCAUGU
6,B22,0.01 KA relative to UGCAUGU
7,B23,0.0131 KA relative to UGCAUGU
8,B24,0.023 KA relative to UGCAUGU
9,B25,0.000256 KA relative to UGCAUGU
10,B26,0.0112 KA relative to UGCAUGU
11,B27,0.00421 KA relative to UGCAUGU
12,B28,0.0137 KA relative to UGCAUGU
13,B29,0.0189 KA relative to UGCAUGU
14,B30,0.0101 KA relative to UGCAUGU
15,B31,0.00774 KA relative to UGCAUGU

# From article PMC9911399, “Two distinct binding modes provide the RNA-binding protein RbFox with extraordinary sequence specificity”
